Source: the supplement of paper PMC8728848
The other results are listed elsewhere or left out.

Tests used:
Assay in all cases: glycan array binding signal (z-score within array); higher = stronger binding
Details in all cases: glycan notation: IUPAC condensed, linker removed
[1] = molecular target: Gal(b1-4)GlcNAc(b1-2)[Gal(b1-4)GlcNAc(b1-6)]Man(a1-6)[Gal(b1-4)GlcNAc(b1-2)Man(a1-3)]Man(b1-4)GlcNAc(b1-4)[Fuc(a1-6)]GlcNAc
Procedure, shortened: (§1)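 From the Consortium for Functional Glycomics database, 3228 arrays were curated, keeping only those whose protein sequence was available. Binding is given as a within-array Z-score averaged across arrays sharing a protein sequence and across linkers. Negative Z-scores can be read as non-binding.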

[2] = molecular target: Gal(b1-4)GlcNAc(b1-2)[Gal(b1-4)GlcNAc(b1-6)]Man(a1-6)[GlcNAc(b1-4)][Gal(b1-4)GlcNAc(b1-2)Man(a1-3)]Man(b1-4)GlcNAc(b1-4)GlcNAc
Procedure, shortened: as §1

[3] = molecular target: Gal(b1-4)GlcNAc(b1-2)[Gal(b1-4)GlcNAc(b1-6)]Man(a1-6)[GlcNAc(b1-4)][Gal(b1-4)GlcNAc(b1-2)[Gal(b1-4)GlcNAc(b1-4)]Man(a1-3)]Man(b1-4)GlcNAc(b1-4)[Fuc(a1-6)]GlcNAc
Procedure, shortened: as §1

[4] = molecular target: Gal(b1-4)GlcNAc(b1-3)Gal(b1-3)GalNAc
Procedure, shortened: as §1

[5] = molecular target: Gal(b1-4)GlcNAc(b1-3)Gal(b1-3)GlcNAc
Procedure, shortened: as §1

[6] = molecular target: Gal(b1-4)GlcNAc(b1-3)Gal(b1-4)Glc
Procedure, shortened: as §1

[7] = molecular target: Gal(b1-4)GlcNAc(b1-3)Gal(b1-4)GlcNAc
Procedure, shortened: as §1

[8] = molecular target: Gal(b1-4)GlcNAc(b1-3)Gal(b1-4)GlcNAc(b1-2)Man(a1-3)[Gal(b1-4)GlcNAc(b1-3)Gal(b1-4)GlcNAc(b1-2)Man(a1-6)]Man(b1-4)GlcNAc(b1-4)GlcNAc
Procedure, shortened: as §1

[9] = molecular target: Gal(b1-4)GlcNAc(b1-3)Gal(b1-4)GlcNAc(b1-2)Man(a1-3)[Gal(b1-4)GlcNAc(b1-3)Gal(b1-4)GlcNAc(b1-2)Man(a1-6)]Man(b1-4)GlcNAc(b1-4)[Fuc(a1-6)]GlcNAc
Procedure, shortened: as §1

[10] = molecular target: Gal(b1-4)GlcNAc(b1-3)Gal(b1-4)GlcNAc(b1-2)[Gal(b1-4)GlcNAc(b1-3)Gal(b1-4)GlcNAc(b1-6)]Man(a1-6)[Gal(b1-4)GlcNAc(b1-3)Gal(b1-4)GlcNAc(b1-2)Man(a1-3)]Man(b1-4)GlcNAc(b1-4)GlcNAc
Procedure, shortened: as §1

[11] = molecular target: Gal(b1-4)GlcNAc(b1-3)Gal(b1-4)GlcNAc(b1-2)[Gal(b1-4)GlcNAc(b1-3)Gal(b1-4)GlcNAc(b1-6)]Man(a1-6)[Gal(b1-4)GlcNAc(b1-3)Gal(b1-4)GlcNAc(b1-2)Man(a1-3)]Man(b1-4)GlcNAc(b1-4)[Fuc(a1-6)]GlcNAc
Procedure, shortened: as §1

[12] = molecular target: Gal(b1-4)GlcNAc(b1-3)Gal(b1-4)GlcNAc(b1-3)Gal(b1-4)GlcNAc
Procedure, shortened: as §1

[13] = molecular target: Gal(b1-4)GlcNAc(b1-3)Gal(b1-4)GlcNAc(b1-3)Gal(b1-4)GlcNAc(b1-2)Man(a1-3)[Gal(b1-4)GlcNAc(b1-3)Gal(b1-4)GlcNAc(b1-3)Gal(b1-4)GlcNAc(b1-2)Man(a1-6)]Man(b1-4)GlcNAc(b1-4)GlcNAc
Procedure, shortened: as §1

[14] = molecular target: Gal(b1-4)GlcNAc(b1-3)Gal(b1-4)GlcNAc(b1-3)Gal(b1-4)GlcNAc(b1-2)Man(a1-3)[Gal(b1-4)GlcNAc(b1-3)Gal(b1-4)GlcNAc(b1-3)Gal(b1-4)GlcNAc(b1-2)Man(a1-6)]Man(b1-4)GlcNAc(b1-4)[Fuc(a1-6)]GlcNAc
Procedure, shortened: as §1

[15] = molecular target: Gal(b1-4)GlcNAc(b1-3)Gal(b1-4)GlcNAc(b1-3)Gal(b1-4)GlcNAc(b1-2)[Gal(b1-4)GlcNAc(b1-3)Gal(b1-4)GlcNAc(b1-3)Gal(b1-4)GlcNAc(b1-6)]Man(a1-6)[Gal(b1-4)GlcNAc(b1-3)Gal(b1-4)GlcNAc(b1-3)Gal(b1-4)GlcNAc(b1-2)Man(a1-3)]Man(b1-4)GlcNAc(b1-4)[Fuc(a1-6)]GlcNAc
Procedure, shortened: as §1

[16] = molecular target: Gal(b1-4)GlcNAc(b1-3)Gal(b1-4)GlcNAc(b1-3)Gal(b1-4)GlcNAc(b1-3)Gal(b1-4)GlcNAc(b1-2)Man(a1-3)[Gal(b1-4)GlcNAc(b1-3)Gal(b1-4)GlcNAc(b1-3)Gal(b1-4)GlcNAc(b1-3)Gal(b1-4)GlcNAc(b1-2)Man(a1-6)]Man(b1-4)GlcNAc(b1-4)GlcNAc
Procedure, shortened: as §1

[17] = molecular target: Gal(b1-4)GlcNAc(b1-3)Gal(b1-4)GlcNAc(b1-3)Gal(b1-4)GlcNAc(b1-3)Gal(b1-4)GlcNAc(b1-2)Man(a1-3)[Gal(b1-4)GlcNAc(b1-3)Gal(b1-4)GlcNAc(b1-3)Gal(b1-4)GlcNAc(b1-3)Gal(b1-4)GlcNAc(b1-2)Man(a1-6)]Man(b1-4)GlcNAc(b1-4)[Fuc(a1-6)]GlcNAc
Procedure, shortened: as §1

[18] = molecular target: Gal(b1-4)GlcNAc(b1-3)Gal(b1-4)GlcNAc(b1-3)Gal(b1-4)GlcNAc(b1-3)Gal(b1-4)GlcNAc(b1-2)[Gal(b1-4)GlcNAc(b1-3)Gal(b1-4)GlcNAc(b1-3)Gal(b1-4)GlcNAc(b1-3)Gal(b1-4)GlcNAc(b1-6)]Man(a1-6)[Gal(b1-4)GlcNAc(b1-3)Gal(b1-4)GlcNAc(b1-3)Gal(b1-4)GlcNAc(b1-3)Gal(b1-4)GlcNAc(b1-2)Man(a1-3)]Man(b1-4)GlcNAc(b1-4)[Fuc(a1-6)]GlcNAc
Procedure, shortened: as §1

[19] = molecular target: Gal(b1-4)GlcNAc(b1-3)Gal(b1-4)GlcNAc(b1-3)Gal(b1-4)GlcNAc(b1-3)Gal(b1-4)GlcNAc(b1-3)Gal(b1-4)GlcNAc(b1-2)Man(a1-3)[Gal(b1-4)GlcNAc(b1-3)Gal(b1-4)GlcNAc(b1-3)Gal(b1-4)GlcNAc(b1-3)Gal(b1-4)GlcNAc(b1-3)Gal(b1-4)GlcNAc(b1-2)Man(a1-6)]Man(b1-4)GlcNAc(b1-4)GlcNAc
Procedure, shortened: as §1

[20] = molecular target: Gal(b1-4)GlcNAc(b1-3)Gal(b1-4)GlcNAc(b1-3)Gal(b1-4)GlcNAc(b1-3)Gal(b1-4)GlcNAc(b1-3)Gal(b1-4)GlcNAc(b1-2)Man(a1-3)[Gal(b1-4)GlcNAc(b1-3)Gal(b1-4)GlcNAc(b1-3)Gal(b1-4)GlcNAc(b1-3)Gal(b1-4)GlcNAc(b1-3)Gal(b1-4)GlcNAc(b1-2)Man(a1-6)]Man(b1-4)GlcNAc(b1-4)[Fuc(a1-6)]GlcNAc
Procedure, shortened: as §1

[21] = molecular target: Gal(b1-4)GlcNAc(b1-3)Gal(b1-4)GlcNAc(b1-3)Gal(b1-4)GlcNAc(b1-3)Gal(b1-4)GlcNAc(b1-3)Gal(b1-4)GlcNAc(b1-2)[Gal(b1-4)GlcNAc(b1-3)Gal(b1-4)GlcNAc(b1-3)Gal(b1-4)GlcNAc(b1-3)Gal(b1-4)GlcNAc(b1-3)Gal(b1-4)GlcNAc(b1-6)]Man(a1-6)[Gal(b1-4)GlcNAc(b1-3)Gal(b1-4)GlcNAc(b1-3)Gal(b1-4)GlcNAc(b1-3)Gal(b1-4)GlcNAc(b1-3)Gal(b1-4)GlcNAc(b1-2)Man(a1-3)]Man(b1-4)GlcNAc(b1-4)[Fuc(a1-6)]GlcNAc
Procedure, shortened: as §1

[22] = molecular target: Gal(b1-4)GlcNAc(b1-3)Gal(b1-4)GlcNAc(b1-3)Gal(b1-4)GlcNAc(b1-3)Gal(b1-4)GlcNAc(b1-3)Gal(b1-4)GlcNAc(b1-3)Gal(b1-4)GlcNAc(b1-2)Man(a1-3)[Gal(b1-4)GlcNAc(b1-3)Gal(b1-4)GlcNAc(b1-3)Gal(b1-4)GlcNAc(b1-3)Gal(b1-4)GlcNAc(b1-3)Gal(b1-4)GlcNAc(b1-3)Gal(b1-4)GlcNAc(b1-2)Man(a1-6)]Man(b1-4)GlcNAc(b1-4)GlcNAc
Procedure, shortened: as §1

[23] = molecular target: Gal(b1-4)GlcNAc(b1-3)Gal(b1-4)GlcNAc(b1-3)GalNAc
Procedure, shortened: as §1

B1: VLRB.aGPA.23-GCN4-biotin (Petromyzon marinus) (protein)
chain: ACPSQCSCSGTEVNCAGKSLASVPAGIPTTTRVLYLNSNQITKLEPGVFDRLANLRELHLWGNQLVSLPPGVFDNLANLEKLWLNSNQLTSLPAGLFDRLVNLEHLGLCCMKLTELPSGAFDKLTRLKQLGLDQNQLKSIPDGAFARLPSLTHVWLHTNPWDCQCTDILYLSGWVAQHSSIVGEGWPWRHSPDSAKCSGTNTPVRAVTEASTSPSKCP
glycan array binding signal (z-score) [1]: -0.068 | glycan array binding signal (z-score) [2]: -0.083 | glycan array binding signal (z-score) [3]: -0.076 | glycan array binding signal (z-score) [4]: -0.084 | glycan array binding signal (z-score) [5]: -0.071 | glycan array binding signal (z-score) [6]: -0.073 | glycan array binding signal (z-score) [7]: -0.079 | glycan array binding signal (z-score) [8]: -0.029 | glycan array binding signal (z-score) [9]: -0.071 | glycan array binding signal (z-score) [10]: -0.08 | glycan array binding signal (z-score) [11]: -0.065 | glycan array binding signal (z-score) [12]: -0.083 | glycan array binding signal (z-score) [13]: -0.036 | glycan array binding signal (z-score) [14]: -0.074 | glycan array binding signal (z-score) [15]: -0.07 | glycan array binding signal (z-score) [16]: -0.072 | glycan array binding signal (z-score) [17]: -0.081 | glycan array binding signal (z-score) [18]: -0.071 | glycan array binding signal (z-score) [19]: -0.081 | glycan array binding signal (z-score) [20]: -0.079 | glycan array binding signal (z-score) [21]: -0.076 | glycan array binding signal (z-score) [22]: -0.071 | glycan array binding signal (z-score) [23]: -0.04
